Source: PMC4336329 (PLoS ONE, 2015)
Out of some 310,000 compounds screened, about 14,000 (4.5%) showed an effect of 50% or more. Effects have a minus sign here. Some of the results follow.

These compounds were tested against human ether-à-go-go-related gene (hERG) potassium channel (human, UniProt Q12809) (assay: primary screen, population patch clamp on CHO cells stably expressing hERG).
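Note: peak tail current of the secondary pulse compared with the same well before compound.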

human ether-à-go-go-related gene (hERG) potassium channel, sequence (Q12809 whole entry, looked up): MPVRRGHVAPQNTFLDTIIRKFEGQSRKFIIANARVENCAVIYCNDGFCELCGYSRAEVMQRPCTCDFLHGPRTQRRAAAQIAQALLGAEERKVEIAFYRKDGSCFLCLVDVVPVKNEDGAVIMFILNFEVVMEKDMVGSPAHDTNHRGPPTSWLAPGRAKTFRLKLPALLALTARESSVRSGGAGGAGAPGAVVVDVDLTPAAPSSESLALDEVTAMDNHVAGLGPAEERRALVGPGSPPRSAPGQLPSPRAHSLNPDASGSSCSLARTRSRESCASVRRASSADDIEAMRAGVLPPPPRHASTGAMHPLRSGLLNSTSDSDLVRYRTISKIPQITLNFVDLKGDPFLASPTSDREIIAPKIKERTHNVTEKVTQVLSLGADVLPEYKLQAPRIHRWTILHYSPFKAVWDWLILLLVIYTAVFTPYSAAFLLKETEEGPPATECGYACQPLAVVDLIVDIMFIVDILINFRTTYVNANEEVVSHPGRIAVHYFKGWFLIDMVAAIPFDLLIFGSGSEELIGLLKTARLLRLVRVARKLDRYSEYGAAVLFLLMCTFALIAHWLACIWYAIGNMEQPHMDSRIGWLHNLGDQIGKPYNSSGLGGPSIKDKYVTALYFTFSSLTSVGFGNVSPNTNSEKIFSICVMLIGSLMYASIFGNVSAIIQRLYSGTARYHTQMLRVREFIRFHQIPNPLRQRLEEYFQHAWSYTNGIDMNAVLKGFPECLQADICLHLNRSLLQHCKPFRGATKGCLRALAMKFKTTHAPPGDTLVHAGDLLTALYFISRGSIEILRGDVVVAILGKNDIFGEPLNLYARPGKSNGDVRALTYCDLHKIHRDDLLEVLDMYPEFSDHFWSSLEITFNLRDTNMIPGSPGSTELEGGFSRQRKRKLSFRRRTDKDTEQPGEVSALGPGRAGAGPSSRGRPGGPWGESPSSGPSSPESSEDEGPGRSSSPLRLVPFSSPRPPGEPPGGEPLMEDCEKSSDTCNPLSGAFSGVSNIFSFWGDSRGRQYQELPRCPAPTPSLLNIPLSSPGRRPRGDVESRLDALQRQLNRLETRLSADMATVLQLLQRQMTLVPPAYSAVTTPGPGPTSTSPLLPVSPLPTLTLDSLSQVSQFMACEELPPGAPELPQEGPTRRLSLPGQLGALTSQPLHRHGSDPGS

| SMILES | hERG current change (%, negative = inhibition) at 10uM |
| --- | --- |
| O=C(c1ccccc1)c1cccn1CC(=O)N1CCN(C2CCCCC2)CC1 | -52.6% |
| S=C(c1ccc2c(c1)OCO2)N1CCCC1 | 10.7% |
| Cc1ccc(OCC(=O)NNC(=O)c2ccoc2C)c(Br)c1 | 9.16% |
| CC(C)C[C@H](NC(=O)c1nc[nH]c1C(=O)N1CCN(C(=O)OC(C)(C)C)CC1)C(=O)OCc1ccccc1 | -20.8% |
| O=C(Nc1cccc(Cl)c1Cl)c1snnc1-c1ccccc1 | 7.74% |
| O=C(NCCCN1CCCC1)c1ccc(CSCc2cccc(Cl)c2)o1 | -61.8% |
| COc1cccc(N2CCN(S(=O)(=O)c3cccc4nsnc34)CC2)c1 | -10.6% |
| O=C(N/N=C/C=C/c1cccc([N+](=O)[O-])c1)C(O)c1ccccc1 (stereo not drawn) | -3.57% |
| COc1ccc(Br)c2c1C(=O)CC2 | 7.31% |
| COc1ccc(OC)c(NS(=O)(=O)c2ccc3c(c2)n(C)c(=O)n3C)c1 | -5.85% |
| Cc1ccc(NC(=O)C2C(c3ccccc3)C=CC(c3ccccc3)C2C(=O)O)cc1 (stereo not drawn) | 2.4% |
| Cc1ccc(S(=O)(=O)N2CCN(C(=O)C3CCN(C(=O)c4ccc(F)cc4)CC3)CC2)c(C)c1 | -55.7% |
| Cn1cnnc1SCc1ccc(C#N)cc1 | 13.4% |
| CCOC(=O)c1ccc(NC(=O)Nc2cc(C)on2)cc1 | 10.8% |
| CC(=O)c1c(C)n(Cc2ccccc2)c2ccc(O)cc12 | 12.8% |
| NC(=O)CSP(=O)(c1ccccc1)c1ccccc1 | 13.2% |
| O=C(Nc1ccccc1Cl)c1cccc(NC(=O)c2cccs2)c1 | -4.91% |
| O=C(O)CCc1ccc(-c2cccs2)n1NC(=O)c1ccco1 | 1.1% |
| Cc1ccc(NC(=O)CN2C(=O)C3CCCCN3C(=O)c3ccccc32)cc1 (stereo not drawn) | -3.57% |
| COC(=O)c1ccc(COc2ccccc2/C=N/NS(=O)(=O)c2ccccc2)cc1 | 13.1% |
| CC1CC(NC(=O)/C(C#N)=C/c2ccc[nH]2)CC(C)(C)C1 (stereo not drawn) | 14.1% |
| COC(=O)C1(c2ccccc2)NC(c2cccs2)C2C(=O)N(c3ccccc3)C(=O)C21 (stereo not drawn) | 10.4% |
| COc1ccc(C(=O)NCCSc2ccc(C)cc2)cc1 | -11% |
| CC(=O)Nc1ccc(S(=O)(=O)NCCc2cc3ccc(C)c(C)c3[nH]c2=O)cc1 | -5.87% |
| CCOC(=O)c1c(/N=C/c2ccc(C)cc2O)sc2c1CCC2 | 2.86% |
| O=P(O)(O)Cc1ccccc1OP(=O)(c1ccccc1)c1ccccc1 | 7.99% |
| CCN1C(=O)N[C@@H](c2ccc(Br)cc2)C(C(C)=O)=C1C | -3.11% |

| SMILES | hERG current change (%, negative = inhibition) at 10uM |
| --- | --- |
| Cc1cc(/C=N\O)c(C)n1-c1ccncc1 | 10.7% |
| COc1ccc(-c2nc(CS(=O)CC(=O)N3CCCC3)c(C)o2)cc1 (stereo not drawn) | 1.4% |
| CCCn1nc(NC(=O)C2CCCO2)c2cc3ccc(C)cc3nc21 (stereo not drawn) | -1.44% |
| C#CCOCCOCCOCCNc1nc(N2CCN(C(=O)[C@H]([C@@H](C)CC)n3cc([C@@H](N)CO)nn3)CC2)nc(N2CCN(C(=O)[C@H](Cc3cc4ccccc4[nH]3)n3cc([C@@H](N)C(C)CC)nn3)CC2)n1.Cl (stereo partly drawn) | -19% |
| CSc1cccc(NC(=O)C2(S(=O)(=O)c3ccc(C)cc3)CC2)c1 | -30.7% |
| Cc1cc(OCc2cc(C(=O)N(C)C3CCOC3)no2)cc(C)c1Cl (stereo not drawn) | -73.6% |
| O=C(COc1ccc2ccccc2c1)N1CCN(C(=O)c2ccc([N+](=O)[O-])cc2)CC1 | -76.5% |
| COc1ccccc1NC(=O)CSc1nc2nc(C)cc(C)c2c(=O)[nH]1 | 4.82% |
| CCN1C(=O)[C@H]2[C@@H](c3ccc(-c4ccc5c(c4)OCO5)c(OC)c3)N[C@@](CC(C)C)(C(=O)OC)[C@H]2C1=O.O=C(O)C(F)(F)F | 0.96% |
| CCCCCN=C(C)c1c(O)c2ccccc2oc1=O | -9.7% |
| COc1cc(C2SCCS2)cc(Br)c1Oc1ncccc1[N+](=O)[O-] | 16.1% |
| NC(Cc1c[nH]c2ccc(OCc3ccccc3)cc12)C(=O)O (stereo not drawn) | 14.5% |
| COc1cc2c(cc1OC)CN(C(=S)Nc1c(C)cccc1C)CC2 | 1.44% |
| COc1ccc(NC(=O)c2cccc(N3C(=O)C4C5C=CC(C5)C4C3=O)c2)cc1Cl (stereo not drawn) | 2.2% |
| COc1ccc(N2CCN(S(=O)(=O)c3c(C)noc3/C=C/N(C)C)CC2)cc1 | -0.914% |
| Cc1ccc(CC(=O)Nc2ccncc2)cc1 | 6.93% |
| C/C(=N\NC(=O)c1ccc(CSc2nncn2C)cc1)c1ccc(C#N)cc1 | -26% |
| O=C(COc1ccc(S(=O)(=O)NCc2ccccc2)cc1Cl)N1CCOCC1 | 18.1% |
| Cc1cc2nc(/C(C#N)=C/c3ccncc3)[nH]c2cc1C | -16.9% |
| CC(=O)NC12CC3CC(C1)CC(C(=O)Oc1ccc(N(C)S(=O)(=O)c4cc(C)ccc4C)cc1)(C3)C2 | 10.5% |
| COc1ccc2c(c1)CCc1c(C(=O)Nc3ccn(Cc4ccc(C)cc4)n3)noc1-2 | 11.4% |
| Cc1nc(N2CCCCC2)c2c(-c3cccs3)csc2n1 | 4.13% |
| O=C1CCC(C(=O)N(Cc2ccco2)C2(C(=O)NC3CCCC3)CCCCC2)N1 (stereo not drawn) | 13.4% |
| COCCOC(=O)C1=C(C)OC(N)=C(C(=O)OC)C12C(=O)Nc1ccccc12 (stereo not drawn) | -1.39% |
| CN1C(C)(C)CC(NC(=O)c2ccco2)CC1(C)C | 4.08% |
| c1ccc(OCCCn2nnc(-c3ccc(N4CCOCC4)cc3)n2)cc1 | 15.4% |
| CC(C)[C@H](NC(=O)N1CCn2c1nc1ccccc12)C(=O)N[C@H](C(=O)O)c1ccccc1 | 11.9% |
